# Reference: paper PMC10668032
# This is one part of the list. At the low end of the ranking the order means little.
# Biological target: SIX1 homeodomain (reference allele) (UniProt Q15475)
# Assay: universal protein binding microarray
# Details: Universal all-10-mer PBM (8x60K, AMADID 030236), 300 nM GST-tagged protein, Alexa Fluor 488 anti-GST; buffer, salt, pH and temperature not stated; high values mean tight binding; most listed sequences are background and not binding sites; double strand, one strand shown
row,Sequence,binding signal
1,AGACGGTC,0.00261 E-score
2,CCATTCCA,0.0467 E-score
3,CAGAAAAC,-0.0302 E-score
4,ATGACCTA,-0.0868 E-score
5,ATCTTTTA,0.139 E-score
6,CAGCTGCG,-0.00226 E-score
7,CCTCATAC,0.0101 E-score
8,CAAATACA,0.0588 E-score
9,GAGGCATA,0.0109 E-score
10,ATTAAGTC,-0.132 E-score
11,AGGAAGAC,-0.0379 E-score
12,GCGGTTCC,-0.183 E-score
13,GCTATTGA,-0.00927 E-score
14,GGGCGTCA,-0.0819 E-score
15,ATGTGAAT,-0.0145 E-score
16,ATTGATAC,0.465 E-score
17,ACCACCAT,-0.0342 E-score
18,GAAGCCTC,-0.191 E-score
19,ACAGCGTG,-0.109 E-score
20,AGGGGGTG,0.186 E-score
21,AGTCTTGG,-0.261 E-score
22,GATACTAC,0.432 E-score
23,ATTCACTC,-0.0706 E-score
24,GATTTGGC,-0.221 E-score
25,GTCGGGTA,0.0708 E-score

row,Sequence,binding signal
1,CTATGGTA,0.305 E-score
2,AGTCATGC,-0.295 E-score
3,AGAATCAT,-0.0172 E-score
4,ATTCGCGC,-0.125 E-score
5,AATATCCA,0.296 E-score
6,CTTGGTAC,0.00502 E-score
7,TTAAAAAA,-0.167 E-score
8,CCTGACCC,-0.0141 E-score
9,ATAAACAA,-0.0516 E-score
10,ACAGAGGT,-0.163 E-score
11,CCGTCCCA,-0.0455 E-score
12,AGCTCAAT,-0.129 E-score
13,GAGGGGAC,-0.105 E-score
14,AGCCCCTC,0.15 E-score
15,AATCCGGG,0.322 E-score
16,TCTCTGCA,-0.0957 E-score
17,GGGCGGAA,-0.136 E-score
18,GACATGGA,-0.072 E-score
19,CCGGTCCC,-0.0566 E-score
20,TTTGCAAA,-0.217 E-score
21,GGCAAATA,-0.0547 E-score
22,ATAACCGA,0.104 E-score
23,CGTGCGAG,-0.0406 E-score
24,GATCTCCA,0.239 E-score
25,ATCCATTA,0.244 E-score

row,Sequence,binding signal
1,CGTTCGTA,-0.0214 E-score
2,CTAAGCGA,0.0445 E-score
3,CCATCGTC,0.0364 E-score
4,TCAAGGGA,0.0583 E-score
5,CGTGATCC,0.41 E-score
6,AATCACTG,-0.00292 E-score
7,AACTCACG,-0.193 E-score
8,ATAGGACG,0.0625 E-score
9,CTGGAATC,0.158 E-score
10,ACTCGTGA,-0.0261 E-score
11,TATGTGCA,-0.00972 E-score
12,AGCTGATG,0.0336 E-score
13,AGACTCCA,-0.189 E-score
14,GGTTAAAC,0.00204 E-score
15,ACAGCCCC,-0.117 E-score
16,ACAATACC,0.318 E-score
17,ATTGAACC,0.023 E-score
18,CTGTTAGC,-0.00211 E-score
19,CCAGCGCC,-0.352 E-score
20,GGCTACCC,-0.0488 E-score
21,CAGATAAA,0.179 E-score
22,ATGCTCAA,-0.122 E-score
23,AGAGACAA,-0.191 E-score
24,TCTGGTAA,0.0628 E-score
25,ATTTCCGA,0.0497 E-score

row,Sequence,binding signal
1,TACTAGCA,0.0418 E-score
2,AGTCTAAA,-0.0626 E-score
3,AGGGTAAC,-0.0222 E-score
4,CAATCTGC,-0.0146 E-score
5,ATTGAACG,-0.0864 E-score
6,TGGCGCAA,-0.203 E-score
7,AGGGATTG,0.203 E-score
8,AGTTACCC,-0.127 E-score
9,AAAAGTTG,-0.196 E-score
10,AGCGGATG,0.154 E-score
11,AGTCTCAT,-0.0067 E-score
12,ATAATATC,0.358 E-score
13,CAGGTCGC,-0.219 E-score
14,AGTGTCGG,0.0966 E-score
15,CCTGTTGA,-0.0461 E-score
16,TGCATCAA,0.0883 E-score
17,GCTCCTAC,-0.053 E-score
18,CGCGGCAA,-0.16 E-score
19,GGAGCCAC,-0.111 E-score
20,GCATGAAA,-0.0531 E-score
21,TAAGACAA,-0.166 E-score
22,TACTAGAA,-0.149 E-score
23,AATCCCTA,0.185 E-score
24,AACAGCCA,-0.142 E-score
25,CAACCGAC,0.05 E-score

row,Sequence,binding signal
1,CCGATAGA,0.079 E-score
2,ACAGGCCT,-0.264 E-score
3,CCAGTTGA,-0.0592 E-score
4,CTAGATAG,0.197 E-score
5,GTTGGACA,0.0696 E-score
6,GGCGTGCA,-0.226 E-score
7,CGTCCGAC,-0.0585 E-score
8,ATCAGGGG,0.307 E-score
9,AATGTTCC,-0.194 E-score
10,AGATATTA,0.234 E-score
11,AACCACGA,-0.0293 E-score
12,GATACTGC,0.445 E-score
13,AGCGCACA,0.00456 E-score
14,CTTCGAGA,-0.174 E-score
15,AGGCCATG,-0.148 E-score
16,ATTTTCTG,-0.253 E-score
17,GTCATATA,0.136 E-score
18,ATGAGTCC,-0.0856 E-score
19,GACCCTAC,-0.0502 E-score
20,CTACCAAG,-0.0197 E-score
21,AGGAGGTC,-0.184 E-score
22,ACCTGTTA,-0.148 E-score
23,AACATAAA,-0.085 E-score
24,ATATTCTG,0.15 E-score
25,TCCGAGAA,0.00813 E-score

row,Sequence,binding signal
1,AGACTTCG,-0.274 E-score
2,ACCTTCGA,0.0633 E-score
3,AACATGAT,0.112 E-score
4,GCCCCACC,0.0916 E-score
5,CAGGAGGA,0.00411 E-score
6,GGTAACAA,-0.0663 E-score
7,GCGCGTTA,0.0495 E-score
8,CTGCCCGC,-0.0571 E-score
9,CTGGAGTA,0.11 E-score
10,CCATCTCG,0.166 E-score
11,AAGTTAAG,-0.261 E-score
12,GTCCTAAA,-0.148 E-score
13,AAGGCAAG,-0.288 E-score
14,ACGCTGTA,-0.000255 E-score
15,AAGGCAGG,-0.0169 E-score
16,ATTGTCCG,-0.233 E-score
17,AACCTATT,-0.156 E-score
18,AATCATTA,-0.0338 E-score
19,CAGTTCTC,-0.00858 E-score
20,ATATACTG,0.299 E-score
21,GCACAGCC,-0.0822 E-score
22,CTTTTCGA,-0.0777 E-score
23,GGGGCTTA,-0.126 E-score
24,CTTCATAC,0.0997 E-score
25,ATTCGGGC,-0.158 E-score

row,Sequence,binding signal
1,ATTCAGAC,-0.0456 E-score
2,CATCGGAG,-0.0622 E-score
3,ACTATTCT,-0.00415 E-score
4,ATGAAACA,-0.084 E-score
5,ATCTTCAA,-0.0114 E-score
6,CTTTGTGA,-0.0025 E-score
7,TCAATCCA,0.163 E-score
8,CTCAATTC,-0.0408 E-score
9,GACCCGAA,0.00483 E-score
10,CGGCTACG,0.0124 E-score
11,CGACAACC,-0.183 E-score
12,GGGGTCGA,0.237 E-score
13,CATGGTAG,-0.107 E-score
14,GCTAAGGA,-0.129 E-score
15,GATCGCTA,0.3 E-score
16,ACGAACGG,0.0758 E-score
17,CGGCACAG,-0.16 E-score
18,AATGAATT,-0.118 E-score
19,CTCTGAAA,-0.142 E-score
20,GACGGCAC,-0.237 E-score
21,CTAAGAGA,-0.0529 E-score
22,AATCTGAC,0.092 E-score
